Results published in the supplement of paper PMC9446081.
About 220 (0.56%) of roughly 39,000 compounds showed activity. Some of the results follow.

tested on: Escherichia coli K-12 BW25113; assay: relative growth (OD600 normalised to plate interquartile mean) (fraction); higher = less growth inhibition, active = 0.2 or less; conditions: 50 µM; LB; incubation time: overnight (16-24 h)
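Also: static incubation at 37 °C against the wild-type strain, values averaged over two biological replicates.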

Row | SMILES | relative growth
1 | C[C@@H]1CN([C@H](C)CO)C(=O)Cc2cc(NC(=O)Nc3ccc4c(c3)OCO4)ccc2O[C@H]1CN(C)Cc1ccc(C(F)(F)F)cc1 | inactive: 1.03
2 | COc1ccccc1S(=O)(=O)N(C)C[C@@H]1OCc2cn(nn2)CCCC(=O)N([C@H](C)CO)C[C@H]1C | inactive: 0.97
3 | C[C@@H]1CN([C@H](C)CO)C(=O)c2cc(NC(=O)CCCCCC(=O)Nc3ccccc3N)ccc2O[C@H]1CN(C)Cc1ccccc1 | inactive: 0.964
4 | CC(=O)NC[C@H]1C[C@@H](N(C(C)=O)S(=O)(=O)c2cccc3cncc(C)c23)CN1 | inactive: 0.989
5 | C[C@@H]1CCCCO[C@@H](CN(C)C(=O)Nc2ccc3c(c2)OCO3)[C@@H](C)CN([C@H](C)CO)C(=O)c2cc(NC(=O)Nc3ccc4c(c3)OCO4)ccc2O1 | inactive: 1.02
6 | CO[C@H]1CN(C)C(=O)c2ccc(NS(=O)(=O)c3ccccc3)cc2OC[C@H](C)N(C(=O)NC(C)C)C[C@H]1C | inactive: 0.968
7 | N[C@H](CSCCB(O)O)C(=O)O | inactive: 1.04
8 | C[C@@H]1CCCCO[C@@H](CN(C)Cc2ccccc2)[C@@H](C)CN([C@@H](C)CO)C(=O)c2cc(NC(=O)CCC(F)(F)F)ccc2O1 | inactive: 0.989
9 | C[C@@H]1CN([C@@H](C)CO)C(=O)c2cc(NC(=O)Nc3ccc(C(F)(F)F)cc3)ccc2O[C@H]1CN(C)CC1CCCCC1 | inactive: 0.968
10 | O=C(CCCCCC(=O)Nc1ccccc1O)N/N=C/[C@H](O)[C@@H](O)[C@@H](O)[C@H](O)C(=O)O | inactive: 0.996
11 | C[C@@H]1CN([C@H](C)CO)C(=O)c2cccc(NC(=O)C3CC3)c2O[C@@H]1CN(C)S(=O)(=O)c1ccc(F)cc1 | inactive: 1
12 | Cc1ccc(S(=O)(=O)N(C)C[C@H]2OCCCC[C@H](C)Oc3ccc(NC(=O)Nc4ccc(C(F)(F)F)cc4)cc3C(=O)N([C@H](C)CO)C[C@H]2C)cc1 | inactive: 1.01
13 | OCCCn1cnnc1 | inactive: 1.06
14 | N[C@H]1CCCC[C@@H]1N1C(=O)CSC1=O | inactive: 1
15 | CO[C@H]1CN(C)C(=O)c2cc(NS(=O)(=O)c3cn(C)cn3)ccc2OC[C@@H](C)N(CCC(F)(F)F)C[C@H]1C | inactive: 0.995
16 | C[C@]12CC[C@@H]3[C@]4(C=C[C@@]5(C=C4C(=O)C4CCCCC4)C[C@@H](O)CC[C@]35C)[C@@H]1CC[C@@]2(O)CN1CCC(n2c(=O)[nH]c3ccccc32)CC1 | inactive: 0.977
17 | C[C@@H]1CN([C@H](C)CO)C(=O)c2cccc(NS(C)(=O)=O)c2O[C@@H]1CN(C)S(=O)(=O)c1ccc(Cl)cc1 | inactive: 0.979
18 | CC(C)C#Cc1ccc2c(c1)O[C@H](CN(C)S(=O)(=O)c1cn(C)cn1)[C@H](C)CN([C@H](C)CO)S2(=O)=O | inactive: 0.993
19 | C[C@@H]1CN([C@@H](C)CO)C(=O)Cc2cc(NS(=O)(=O)c3cn(C)cn3)ccc2O[C@@H]1CN(C)C | inactive: 1.02
20 | CC(=O)SCC(Cc1ccccc1)C(=O)NCC(=O)OCc1ccccc1 (centres undefined) | inactive: 0.991

Row | SMILES | relative growth
21 | COc1ccc([Si](C)(C)[C@H]2[C@H](CCOC(=O)NCCCCCC(=O)NO)O[C@]3(C(=O)N(Cc4cccc(I)c4)c4ccccc43)[C@@H]2C)cc1 | inactive: 1.03
22 | C[C@@H]1CCCCO[C@H](CN(C)C(=O)C2CCCCC2)[C@@H](C)CN([C@@H](C)CO)C(=O)c2cc(NC(=O)c3ccccc3)ccc2O1 | inactive: 0.976
23 | C[C@@H]1CN([C@@H](C)CO)C(=O)Cc2cc(NC(=O)C3CCCCC3)ccc2O[C@H]1CN(C)Cc1ccc(Cl)c(Cl)c1 | inactive: 0.983
24 | C[C@H]1CN([C@@H](C)CO)C(=O)Cc2cc(NS(=O)(=O)c3cn(C)cn3)ccc2O[C@@H]1CN(C)S(=O)(=O)c1ccc(F)cc1 | inactive: 0.981
25 | COc1ccc([Si](C)(C)[C@@H]2[C@@H](CCO)O[C@]3(C(=O)N(Cc4ccccc4)c4ccc(N(C=O)c5ccccc5)cc43)[C@H]2C)cc1 | inactive: 1.02
26 | C[C@H](CO)N1C[C@H](C)[C@H](CN(C)C(=O)Nc2ccc(C(F)(F)F)cc2)Oc2c(NC(=O)Nc3ccccc3)cccc2C1=O | inactive: 0.985
27 | C[C@H]1CN([C@@H](C)CO)C(=O)c2cccc(NC(=O)c3ccc(-c4nccs4)cc3)c2O[C@@H]1CN(C)Cc1ccc(C(F)(F)F)cc1 | inactive: 1.03
28 | Cc1ccc(S(=O)(=O)Nc2ccc3c(c2)C(=O)N([C@@H](C)CO)C[C@@H](C)[C@H](CN(C)C(=O)Nc2ccc4c(c2)OCO4)OCCCC[C@@H](C)O3)cc1 | inactive: 1.01
29 | COc1ccc(CN(CCN(C)C)c2ccccn2)cc1.O=C(O)C=CC(=O)O | inactive: 1.09
30 | C[C@@H]1CN([C@H](C)CO)C(=O)c2cccc(NS(=O)(=O)c3cn(C)cn3)c2O[C@H]1CN(C)CC1CCCCC1 | inactive: 0.983
31 | Cc1noc(C)c1S(=O)(=O)Nc1ccc2c(c1)CC(=O)N([C@H](C)CO)C[C@@H](C)[C@H](CN(C)C(=O)Nc1ccc3c(c1)OCO3)O2 | inactive: 0.989
32 | C[C@@H]1CN([C@@H](C)CO)C(=O)c2cc(NC(=O)Cn3cnnn3)ccc2O[C@H]1CN(C)Cc1ccc(C(=O)O)cc1 | inactive: 1.05
33 | C[C@@H]1CN([C@H](C)CO)C(=O)Cc2cc(NC(=O)NC3CCCCC3)ccc2O[C@H]1CN(C)Cc1ccc(-c2ccccc2)cc1 | inactive: 1.04
34 | O=C(C[C@H]1C[C@@H]2c3cc(NS(=O)(=O)c4ccc(F)cc4)ccc3O[C@@H]2[C@H](CO)O1)N1CCCCC1 | inactive: 0.998
35 | C[C@@H](OCc1ccccc1)[C@H]1NC(=O)[C@@]23C(=O)N[C@@H](Cc4ccccc4)[C@H]2[C@H](C)[C@@]2(C)O[C@H]2[C@@H]3/C=C/C/C=C\CNC(=O)CNC1=O | inactive: 1
36 | O=c1[nH]ncn1-c1ccccc1 | inactive: 0.969
37 | C[N+](C)(C)[C@@H]1[C@H]2OC[C@H](O)[C@H]2O[C@@H]1O | inactive: 1.01
38 | Cc1noc(C)c1S(=O)(=O)Nc1ccc2c(c1)C(=O)N([C@@H](C)CO)C[C@@H](C)[C@H](CN(C)C(=O)NC1CCCCC1)O2 | inactive: 1.01
39 | COc1ccc(NC(=O)N(C)C[C@@H]2OCCCC[C@@H](C)Oc3ccc(NC(=O)Nc4cccc5ccccc45)cc3C(=O)N([C@@H](C)CO)C[C@@H]2C)cc1 | inactive: 1.04
40 | C[C@@H]1CCCCO[C@H](CN(C)C(=O)Nc2ccc(F)cc2)[C@H](C)CN([C@H](C)CO)C(=O)c2cc(NC(=O)Cc3ccccc3)ccc2O1 | inactive: 0.995

Row | SMILES | relative growth
41 | O=C1CCC(c2ccc(O)cc2)CC1 | inactive: 0.993
42 | O=C(C[C@@H]1C=C[C@H](NC(=O)C2CCC2)[C@H](CO)O1)NCCCN1CCOCC1 | inactive: 1
43 | C[C@H]1CCCCO[C@H](CN(C)C(=O)Nc2ccc(C(F)(F)F)cc2)[C@@H](C)CN([C@@H](C)CO)C(=O)c2cc(NC(=O)c3ccncc3)ccc2O1 | inactive: 0.915
44 | C[C@@H]1CCCCO[C@@H](CN(C)Cc2ccc(C(F)(F)F)cc2)[C@H](C)CN([C@@H](C)CO)C(=O)c2cc(NS(=O)(=O)c3cccs3)ccc2O1 | inactive: 1
45 | Cc1csc2sc(/C=N/Cc3cccs3)c(C)c12 | inactive: 1.01
46 | COCCNC(=O)C[C@@H]1C[C@@H]2c3cc(NC(=O)Nc4ccc(C(F)(F)F)cc4)ccc3O[C@@H]2[C@H](CO)O1 | inactive: 1.01
47 | C[C@@H]1CN([C@@H](C)CO)C(=O)c2cc(NC(=O)Nc3ccc(C(F)(F)F)cc3)ccc2O[C@@H]1CN(C)S(C)(=O)=O | inactive: 0.942
48 | C[C@H]1CCCCO[C@H](CN(C)Cc2ccc(Cl)c(Cl)c2)[C@@H](C)CN([C@@H](C)CO)C(=O)c2cc(N(C)C)ccc2O1 | inactive: 0.969
49 | N[C@@H](CSCCCO)C(=O)O | inactive: 1.01
50 | COc1ccc(S(=O)(=O)Nc2ccc3c(c2)C(=O)N([C@@H](C)CO)C[C@H](C)[C@@H](CN(C)C(=O)Nc2ccc(C(F)(F)F)cc2)OCCCC[C@@H](C)O3)cc1 | inactive: 1.01
51 | C[C@@H]1CN([C@@H](C)CO)C(=O)c2cc(NC(=O)c3ccncc3)ccc2O[C@@H](C)CCCCO[C@H]1CN(C)C(=O)Nc1ccc2c(c1)OCO2 | inactive: 0.994
52 | Cc1noc(C)c1S(=O)(=O)Nc1ccc2c(c1)CC(=O)N([C@@H](C)CO)C[C@@H](C)[C@@H](CN(C)S(=O)(=O)c1cn(C)cn1)O2 | inactive: 0.996
53 | C[C@H](CO)N1C[C@H](C)[C@@H](CN(C)C(=O)Nc2ccc3c(c2)OCO3)Oc2ccc(NC(=O)c3ccncc3)cc2C1=O | inactive: 0.977
54 | C[C@@H]1CN([C@H](C)CO)C(=O)c2cc(Br)cnc2O[C@@H]1CN(C)C(=O)Nc1ccc(F)cc1 | inactive: 1.04
55 | C[C@@H]1CCCCO[C@H](CN(C)Cc2ccncc2)[C@H](C)CN([C@H](C)CO)C(=O)c2cc(NC(=O)Cc3ccccc3)ccc2O1 | inactive: 0.985
56 | CO[C@@H](CN(C)C(=O)C1CCOCC1)[C@@H](C)CN(C(=O)Nc1ccc(C(F)(F)F)cc1)[C@H](C)CO | inactive: 0.854
57 | C[C@@H]1CN([C@@H](C)CO)C(=O)c2cc(NC(=O)Nc3ccccc3)ccc2O[C@@H](C)CCCCO[C@@H]1CN(C)C(=O)NC1CCCCC1 | inactive: 1.02
58 | COCC#Cc1cnc2c(c1)C(=O)N([C@H](C)CO)C[C@@H](C)[C@@H](CN(C)C(=O)c1ccc3c(c1)OCO3)O2 | inactive: 1.03
59 | CN(C)CCCNC(=O)C[C@H]1CC[C@@H]2[C@H](COc3ccc(NC(=O)c4cccc(F)c4)cc3C(=O)N2C)O1 | inactive: 1.03
